{"source": "the supplement of paper PMC8728848", "experiment_in_all_cases": "glycan array binding signal (z-score within array); higher = stronger binding", "details_in_all_cases": "glycan notation: IUPAC condensed, linker removed", "key": {"[1]": {"target": "Neu5Ac(a2-3)Gal(b1-4)GlcNAc(b1-6)GalNAc", "outline": "(§1)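 Negative Z-scores can be read as non-binding. The Z-score is calculated within each array and then averaged across arrays of one protein sequence at different concentrations or buffers and across linkers. Arrays, 3228 in all, were curated from the Consortium for Functional Glycomics database and kept only where the protein sequence was available.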"}, "[2]": {"target": "Neu5Ac(a2-3)Gal(b1-4)GlcNAc(b1-6)[Gal(b1-3)]GalNAc", "outline": "as §1"}, "[3]": {"target": "Neu5Ac(a2-3)Gal(b1-4)GlcNAc(b1-6)[Neu5Ac(a2-3)Gal(b1-3)]GalNAc", "outline": "as §1"}, "[4]": {"target": "Neu5Ac(a2-3)Gal(b1-4)GlcNAc6S", "outline": "as §1"}, "[5]": {"target": "Neu5Ac(a2-3)Gal(b1-4)[Fuc(a1-3)]GlcNAc", "outline": "as §1"}, "[6]": {"target": "Neu5Ac(a2-3)Gal(b1-4)[Fuc(a1-3)]GlcNAc(b1-2)Man", "outline": "as §1"}, "[7]": {"target": "Neu5Ac(a2-3)Gal(b1-4)[Fuc(a1-3)]GlcNAc(b1-3)Gal", "outline": "as §1"}, "[8]": {"target": "Neu5Ac(a2-3)Gal(b1-4)[Fuc(a1-3)]GlcNAc(b1-3)Gal(b1-4)GlcNAc", "outline": "as §1"}, "[9]": {"target": "Neu5Ac(a2-3)Gal(b1-4)[Fuc(a1-3)]GlcNAc(b1-3)Gal(b1-4)[Fuc(a1-3)]GlcNAc(b1-3)Gal(b1-4)[Fuc(a1-3)]GlcNAc", "outline": "as §1"}, "[10]": {"target": "Neu5Ac(a2-3)Gal(b1-4)[Fuc(a1-3)]GlcNAc(b1-3)GalNAc", "outline": "as §1"}, "[11]": {"target": "Neu5Ac(a2-3)Gal(b1-4)[Fuc(a1-3)]GlcNAc(b1-6)[Gal(b1-3)]GalNAc", "outline": "as §1"}, "[12]": {"target": "Neu5Ac(a2-3)Gal(b1-4)[Fuc(a1-3)]GlcNAc(b1-6)[Neu5Ac(a2-3)Gal(b1-3)]GalNAc", "outline": "as §1"}, "[13]": {"target": "Neu5Ac(a2-3)Gal(b1-4)[Fuc(a1-3)]GlcNAc6S", "outline": "as §1"}, "[14]": {"target": "Neu5Ac(a2-3)Gal6S(b1-4)GlcNAc", "outline": "as §1"}, "[15]": {"target": "Neu5Ac(a2-3)Gal6S(b1-4)[Fuc(a1-3)]GlcNAc", "outline": "as §1"}, "Neu5Ac(a2-3)GalNAc": {"target": "Neu5Ac(a2-3)GalNAc", "outline": "as §1"}, "[16]": {"target": "Neu5Ac(a2-3)GalNAc(b1-4)GlcNAc", "outline": "as §1"}, "[17]": {"target": "Neu5Ac(a2-3)[GalNAc(b1-4)]Gal(b1-4)Glc", "outline": "as §1"}, "[18]": {"target": "Neu5Ac(a2-3)[GalNAc(b1-4)]Gal(b1-4)GlcNAc", "outline": "as §1"}, "[19]": {"target": "Neu5Ac(a2-3)[GalNAc(b1-4)]Gal(b1-4)GlcNAc(b1-3)GalNAc", "outline": "as §1"}, "[20]": {"target": "Neu5Ac(a2-3)[Neu5Ac(a2-6)]GalNAc", "outline": "as §1"}, "Neu5Ac(a2-6)Gal": {"target": "Neu5Ac(a2-6)Gal", "outline": "as §1"}, "[21]": {"target": "Neu5Ac(a2-6)Gal(b1-3)GlcNAc(b1-3)[Gal(b1-4)GlcNAc(b1-6)]Gal(b1-4)Glc", "outline": "as §1"}, "Neu5Ac(a2-6)Gal(b1-4)Glc": {"target": "Neu5Ac(a2-6)Gal(b1-4)Glc", "outline": "as §1"}, "[22]": {"target": "Neu5Ac(a2-6)Gal(b1-4)GlcNAc", "outline": "as §1"}, "[23]": {"target": "Neu5Ac(a2-6)Gal(b1-4)GlcNAc(b1-2)Man", "outline": "as §1"}, "[24]": {"target": "Neu5Ac(a2-6)Gal(b1-4)GlcNAc(b1-2)Man(a1-3)Man(b1-4)GlcNAc(b1-4)GlcNAc", "outline": "as §1"}, "[25]": {"target": "Neu5Ac(a2-6)Gal(b1-4)GlcNAc(b1-2)Man(a1-3)[Gal(b1-4)GlcNAc(b1-2)Man(a1-6)]Man(b1-4)GlcNAc(b1-4)GlcNAc", "outline": "as §1"}, "[26]": {"target": "Neu5Ac(a2-6)Gal(b1-4)GlcNAc(b1-2)Man(a1-3)[GlcNAc(b1-2)Man(a1-6)]Man(b1-4)GlcNAc(b1-4)GlcNAc", "outline": "as §1"}, "[27]": {"target": "Neu5Ac(a2-6)Gal(b1-4)GlcNAc(b1-2)Man(a1-3)[GlcNAc(b1-4)][Neu5Ac(a2-6)Gal(b1-4)GlcNAc(b1-2)Man(a1-6)]Man(b1-4)GlcNAc(b1-4)GlcNAc", "outline": "as §1"}}, "note": "This is one part of the list."}
{"binder": "BT3172pd (Bacteroides thetaiotaomicron) (protein) MLPLRAEHYYYKQISLKEGLPSNVRCILRDEQGFIWIGTKAGLGKFDGHQLKRYKHQANDPHSLLHNLIYQIAEDKQHNIWILTEKGIARYQQQSNNFTFPTDEEGNYITAYSFCLVPDGILFGGKDRIYKYSYKDSSLRLLQYFNANSFKITALSVWDSKTLLCCSRWTGLYLVDLQTGEHRRPPFDCGPEITSMITDSKNRIWIAPYSGGLRCYSRDGKLSASYTTHNSSLSNDIVLSLAEREEQLWIGTDGGGINILHPETGEISQLEYIPGRENYSLPANSILCLHNDYNNNVWAGSTCNGLISIREVSMKTYTDVVPGNDRGLSNGTVRSLYRQSPDSIWIGTDGGGINLFSPHTEKFTHYSSTWGDKVAFISGFTPGKLLISLFSKGVFVFNPATGEKQPFTIIDKETTTRLCNRGKSVNLYQNTPNTVLFLGDHIYQYHLKEKKFSTITEEEGKDIVGTLVPFDHQENLTYINDIKHIYELDDQTSRLKTVFECYTDTVISSVSHDEQGHFWIGSNFGLIHYDPVLKSRTLVPTNLFTEINMVLCDQKGKVWIGVDNMLFAYFIKEQKFVLFGESNGAIQNEYLPNARLVNEQGDAYIGGVKGMLRIDGQLLLNTSEMPELQLLDITINGESANHEWYNHPAKISVPWNSNISIRIMSREEDIFRQKIYRYQIEGLNNEYTESYNPELVIRSLLPGSYRIMASCTAKDGSWIPDQQVLELTVLPPWYRTHHHHHH", "values": [{"measurement": "glycan array binding signal (z-score)", "setting": "[1]", "value": -1.25}, {"measurement": "glycan array binding signal (z-score)", "setting": "[2]", "value": -0.43}, {"measurement": "glycan array binding signal (z-score)", "setting": "[3]", "value": -0.567}, {"measurement": "glycan array binding signal (z-score)", "setting": "[4]", "value": 2.43}, {"measurement": "glycan array binding signal (z-score)", "setting": "[5]", "value": -0.087}, {"measurement": "glycan array binding signal (z-score)", "setting": "[6]", "value": -0.094}, {"measurement": "glycan array binding signal (z-score)", "setting": "[7]", "value": -0.647}, {"measurement": "glycan array binding signal (z-score)", "setting": "[8]", "value": -0.529}, {"measurement": "glycan array binding signal (z-score)", "setting": "[9]", "value": -0.582}, {"measurement": "glycan array binding signal (z-score)", "setting": "[10]", "value": -0.303}, {"measurement": "glycan array binding signal (z-score)", "setting": "[11]", "value": 0.792}, {"measurement": "glycan array binding signal (z-score)", "setting": "[12]", "value": 0.699}, {"measurement": "glycan array binding signal (z-score)", "setting": "[13]", "value": 0.417}, {"measurement": "glycan array binding signal (z-score)", "setting": "[14]", "value": 0.228}, {"measurement": "glycan array binding signal (z-score)", "setting": "[15]", "value": 0.575}, {"measurement": "glycan array binding signal (z-score)", "setting": "Neu5Ac(a2-3)GalNAc", "value": -0.281}, {"measurement": "glycan array binding signal (z-score)", "setting": "[16]", "value": -0.423}, {"measurement": "glycan array binding signal (z-score)", "setting": "[17]", "value": -0.631}, {"measurement": "glycan array binding signal (z-score)", "setting": "[18]", "value": -0.192}, {"measurement": "glycan array binding signal (z-score)", "setting": "[19]", "value": -0.508}, {"measurement": "glycan array binding signal (z-score)", "setting": "[20]", "value": -0.249}, {"measurement": "glycan array binding signal (z-score)", "setting": "Neu5Ac(a2-6)Gal", "value": 4.96}, {"measurement": "glycan array binding signal (z-score)", "setting": "[21]", "value": -0.278}, {"measurement": "glycan array binding signal (z-score)", "setting": "Neu5Ac(a2-6)Gal(b1-4)Glc", "value": 0.862}, {"measurement": "glycan array binding signal (z-score)", "setting": "[22]", "value": -0.069}, {"measurement": "glycan array binding signal (z-score)", "setting": "[23]", "value": 0.901}, {"measurement": "glycan array binding signal (z-score)", "setting": "[24]", "value": 0.866}, {"measurement": "glycan array binding signal (z-score)", "setting": "[25]", "value": -0.333}, {"measurement": "glycan array binding signal (z-score)", "setting": "[26]", "value": -0.771}, {"measurement": "glycan array binding signal (z-score)", "setting": "[27]", "value": -0.461}]}
